Reference: PubChem BioAssay AID1030 (National Center for Advancing Translational Sciences (NCATS), 2008)
The whole screen tested about 220,000 compounds, of which about 16,000 (7.3%) were called active. This list was built around the results that the source calls inconclusive (neither active nor inactive); the mix of calls is not that of the screen. Calls follow the shape of the dose curve; as a rule, active = well fitted inhibition curve with a large enough effect (not every such curve was filed as active); inconclusive = small, poorly fitted or top-dose-only effect, or another doubt; inactive = no such curve, though single readings can be large or run the other way. Potencies of inconclusive entries are left out as doubtful fits.

molecular target: Aldehyde dehydrogenase 1A1 (Homo sapiens) (UniProt P00352); test: qHTS Assay for Inhibitors of Aldehyde Dehydrogenase 1 (ALDH1A1); details: Purified ALDH1A1, NADH fluorescence, propionaldehyde substrate; series mostly up to 75.3 µM
Potency is read from the fitted curve at half-maximal effect; tags tell the direction and shape of the fitted curve.

UniProt P00352, sequence (P00352 whole entry, looked up): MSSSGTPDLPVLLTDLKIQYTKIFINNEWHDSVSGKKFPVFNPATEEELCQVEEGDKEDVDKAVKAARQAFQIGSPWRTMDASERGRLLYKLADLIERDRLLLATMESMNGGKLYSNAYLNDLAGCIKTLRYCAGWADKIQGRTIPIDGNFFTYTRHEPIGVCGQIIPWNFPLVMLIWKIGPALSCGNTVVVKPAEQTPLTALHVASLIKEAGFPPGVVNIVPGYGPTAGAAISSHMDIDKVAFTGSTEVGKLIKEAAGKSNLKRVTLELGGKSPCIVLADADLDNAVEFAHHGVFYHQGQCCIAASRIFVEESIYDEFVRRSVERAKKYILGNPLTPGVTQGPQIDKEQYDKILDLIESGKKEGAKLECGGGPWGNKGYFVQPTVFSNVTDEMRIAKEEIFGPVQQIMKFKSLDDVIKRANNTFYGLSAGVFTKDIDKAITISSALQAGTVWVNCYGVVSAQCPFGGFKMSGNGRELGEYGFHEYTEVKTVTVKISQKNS

Row | Compound | Potency
1 | O=C(c1ccc2c(=O)n(Cc3ccco3)c(=S)[nH]c2c1)N1CCN(Cc2ccccc2)CC1 | inconclusive [inhibitor, full curve]
2 | COc1ccc(C(=O)C2CCCN(C(=O)CCc3scnc3C)C2)c(C)c1 (configuration not stated) | inconclusive [inhibitor, single point]
3 | Cc1cc(C)c(C#N)c(SCc2nnc(-c3ccccc3[N+](=O)[O-])o2)n1 | inconclusive [inhibitor, single point]
4 | O=C(CCCNS(=O)(=O)c1cccc2nsnc12)NC1CCCCC1 | inconclusive [inhibitor, single point]
5 | Cc1cc(C)n2nc(SCc3nnc(SCCCCl)o3)nc2n1 | inactive
6 | O=C(COC(=O)Cc1ccsc1)NCc1ccccc1 | inactive
7 | CCOCCn1c(N2CCN(c3ccccc3)CC2)nc2c1c(=O)[nH]c(=O)n2C | inactive
8 | CC(=O)O/N=C1\C(=O)N(Cc2ccc(C)cc2)c2ccccc21 | inconclusive [inhibitor, single point]
9 | O=C(CSc1nnc(-c2cccnc2)n1CCc1ccccc1)N1CCCCC1 | inactive
10 | COc1ccc(Cn2cnc([N+](=O)[O-])c2)cc1[N+](=O)[O-] | inconclusive [inhibitor, partial curve]
11 | CS(=O)(=O)N1CCC2(CC1)CN(c1ccccc1)C2 | inactive
12 | CC(=O)c1ccc(NC(=O)C2CCCN2S(=O)(=O)c2ccc(F)cc2)cc1 (configuration not stated) | inconclusive [inhibitor, single point]
13 | CCN1C(=O)[C@@H]2[C@H](C1=O)[C@@H]1C[C@H]3C(=O)N(CC)C(=O)[C@H]3[C@@H]3C1=C(C(=O)N1C(=O)O/C(=N\CC4CC4)[C@]31C)[C@@H]2C | inactive
14 | CC(C)(C)c1cc(N)on1 | inactive
15 | Cc1cc(OCC(=O)Nc2nnc(C3CC3)s2)ccc1[N+](=O)[O-] | inactive
16 | Cc1ccc2[nH]c(C)cc(=O)c2c1 | inconclusive [inhibitor, single point]
17 | O=C1N(CC(=O)N2CCc3ccccc32)CCN1Cc1ccc(Cl)cc1 | inconclusive [inhibitor, partial curve]
18 | COc1ccccc1/C=C/C=N/n1c(COc2ccccc2)n[nH]c1=S | inconclusive [inhibitor, partial curve]
19 | Cc1sc2nc(-c3cccs3)nc(N3CCCN(C)CC3)c2c1C | inconclusive [inhibitor, partial curve]
20 | Cc1ccccc1NC1c2ccccc2C(=O)N1Cc1ccco1 (configuration not stated) | inconclusive [inhibitor, single point]
21 | CCCC(=O)Nc1cc(C(=O)O)ccc1S(=O)(=O)c1ccc(Cl)cc1 | inactive
22 | Cc1cc(=O)oc2cc(OCC(=O)N3CCCC(C)C3)ccc12 (configuration not stated) | inconclusive [inhibitor, partial curve]
23 | CCc1nnc(NC(=O)c2ccc(-c3ccccc3F)o2)s1 | inconclusive [inhibitor, single point]
24 | CC(=O)N1CCN(c2ccccc2NC(=O)c2ccc(-c3cccc([N+](=O)[O-])c3)o2)CC1 | active: 14.1 µM

Row | Compound | Potency
25 | CC(C)CN(CC(C)C)C(=O)Nc1cccc([N+](=O)[O-])c1 | inactive
26 | Nc1cc(C(=O)c2ccccc2)ccc1[N+](=O)[O-] | inactive
27 | CC(=O)N=Nc1[nH]c(N)c2ccccc12 | inactive
28 | CCn1c(=O)cc(SCC(=O)NCc2ccc(C)cc2)c2ccccc21 | inactive
29 | O=C(O)C1CC=CCC1C(=O)Nc1ccc(N2CCN(Cc3ccccc3)CC2)cc1 (configuration not stated) | inconclusive [inhibitor, single point]
30 | C/C=C/C1=CC2=CC(=O)C(C)(OC(=O)c3c(C)cc(O)cc3O)C(=O)C2=CO1 (configuration not stated) | inconclusive [inhibitor, single point]
31 | O=C(Nc1cccc2ccccc12)N1CC=C(c2ccccc2)CC1 | inconclusive [inhibitor, single point]
32 | CCSc1nnc(NC(=O)CSc2c(Cl)cccc2Cl)s1 | inconclusive [inhibitor, partial curve]
33 | Cc1ccc(-c2cc3nc(C)cc(NCc4ccco4)n3n2)cc1 | inconclusive [inhibitor, single point]
34 | Cc1cc2nc(-c3ccc(SCc4ccccc4C#N)nc3)[nH]c2cc1C | inconclusive [inhibitor, partial curve]
35 | O=C(CNC(=O)c1ccccc1Br)N/N=C/c1ccc(O)cc1 | inconclusive [inhibitor, single point]
36 | O=C1C(NS(=O)(=O)c2ccc(Cl)cc2)=C(N2CCCCC2)C(=O)c2ccccc21 | active: 8.91 µM
37 | CCS(=O)(=O)N1CCN(c2ccc(C(=O)NC34CC5CC(CC(C5)C3)C4)cc2[N+](=O)[O-])CC1 | inconclusive [inhibitor, single point]
38 | Cc1ccccc1OCC(=O)N/N=C/c1ccc2c(c1)OCCO2 | inconclusive [inhibitor, partial curve]
39 | Cc1ccccc1CN1CCN(CC(=O)NCc2ccc3c(c2)OCO3)C1=O | active: 12.6 µM
40 | C/C(=N\NC(=O)c1ccc([N+](=O)[O-])cc1)c1cc2ccccc2oc1=O | inactive
41 | CC(C)NCc1cccc([N+](=O)[O-])c1 | inactive
42 | O=C(CN1C(=O)CC(c2ccco2)Sc2ccccc21)NCc1ccc2c(c1)OCO2 (configuration not stated) | inconclusive [inhibitor, single point]
43 | CCOC(=O)CC(=O)CSc1[nH]c(=O)cc(C)c1C#N | inactive
44 | CSc1ccc(CN2CCCC(CO)(Cc3ccccc3)C2)cc1 (configuration not stated) | inconclusive [inhibitor, partial curve]
45 | C=CCOc1ccc(/C(O)=C2/C(=O)C(=O)N(CCCn3ccnc3)C2c2ccco2)cc1 (configuration not stated) | inconclusive [inhibitor, single point]
46 | O=C(COC(=O)c1c2c(nc3ccccc13)CCCCC2)NCc1ccc2c(c1)OCO2 | inconclusive [inhibitor, partial curve]
47 | CCCNC(=O)CS(=O)Cc1nc(-c2ccccc2C)oc1C (configuration not stated) | inactive
48 | CN(C)c1ncc2nc(-c3ccc(F)cc3)c(=O)n(C[C@H]3CCCO3)c2n1 | inconclusive [inhibitor, partial curve]

Row | Compound | Potency
49 | CCn1cnc2cc(NC(=O)c3ccco3)ccc21 | inactive
50 | CCN(CC)C(=O)CSc1nnc(CCCCCNC(=O)OC(C)(C)C)o1 | inactive
51 | COc1cccc(CNc2ccccc2O)c1OCc1ccccc1F | active: 14.1 µM
52 | Oc1c(C(Nc2ccccn2)c2cccnc2)cc(Cl)c2cccnc12 (configuration not stated) | inconclusive [inhibitor, single point]
53 | CN1CCN(S(=O)(=O)c2cccc(C(=O)Nc3nc(-c4ccccc4)cs3)c2)CC1 | inconclusive [inhibitor, partial curve]
54 | O=C(Nc1ccccc1)OCc1cnc(Cl)s1 | inactive
55 | Cc1cccc(C2c3[nH]c4ccccc4c3CCN2C(=O)c2cc(-c3cccn3C)n[nH]2)n1 (configuration not stated) | inactive
56 | COc1cc(NC(=S)NCCC(c2ccccc2)c2ccccc2)cc(OC)c1 | inconclusive [inhibitor, single point]
57 | O=C(O)C(Cc1ccccc1)N1C(=O)/C(=C/c2cccs2)SC1=S (configuration not stated) | inconclusive [inhibitor, partial curve]
58 | O=C(c1cccc(F)c1)N1CCN(c2cc(N3CCCCC3)c(F)cc2[N+](=O)[O-])CC1 | inconclusive [inhibitor, partial curve]
59 | Cc1c(C(=O)Nc2ccc(-c3nnc4n3CCCCC4)cc2)oc2ccc(Br)cc12 | inconclusive [inhibitor, full curve, poor fit]
60 | COc1ccc(CCNC(=O)COC(=O)/C=C/c2cccs2)cc1 | inconclusive [inhibitor, full curve, poor fit]
61 | Cc1cc(C)n(-c2nc3ccccc3nc2N2CCN(S(=O)(=O)c3ccc(F)c(C)c3)CC2)n1 | inconclusive [inhibitor, full curve]
62 | O=c1[nH]c2cc3c(cc2cc1CN(CCCO)C(=S)NCc1ccco1)OCO3 | inconclusive [inhibitor, partial curve]
63 | COC(=O)c1cc(NC(=O)c2c(Cl)nc3sccn23)cc(C(=O)OC)c1 | inactive
64 | CCN(CC)S(=O)(=O)c1ccc(F)cc1 | inactive
65 | C=CCOC(=O)C1=C(C)NC(C)=C(C(=O)OCC=C)C1c1ccc(O)cc1 | inconclusive [inhibitor, single point]
66 | Cc1sc2ncn(CCn3cnc4sc(C)c(C)c4c3=O)c(=O)c2c1C | inconclusive [inhibitor, partial curve]
67 | CC(Oc1ccccc1Br)C(=O)N1CCc2ccccc21 (configuration not stated) | inactive
68 | CCOC(=O)Cc1ccc(NC(=O)c2ccc(C(C)(C)C)cc2)cc1 | inactive
69 | Cc1cccc(N(CC(=O)Nc2ccc(-c3nc4ccc(C)cc4s3)cc2)S(C)(=O)=O)c1 | inconclusive [inhibitor, single point]
70 | O=C(N/N=C/c1ccc(N2CCOCC2)cc1)c1cccs1 | inconclusive [inhibitor, single point]
71 | O=C(NCCN1CCCCCC1)c1ccc(N2CCCC2=O)cc1 | inconclusive [inhibitor, single point]
72 | Cn1c(=O)c2cc(S(=O)(=O)NC(C(=O)N3CCCCCC3)c3ccccc3)ccc2n(C)c1=O (configuration not stated) | active: 3.16 µM
